Reference: paper PMC4336329 (PLoS ONE, 2015)
About 14,000 (4.5%) of roughly 310,000 compounds showed an effect of 50% or more. Effects have a minus sign here. The list shows a part of the results.

Target: human ether-à-go-go-related gene (hERG) potassium channel (human, UniProt Q12809)
Experiment: primary screen, population patch clamp on CHO cells stably expressing hERG
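Further: peak tail current of the secondary pulse compared with the same well before compound.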

Sequence of human ether-à-go-go-related gene (hERG) potassium channel (Q12809 whole entry, looked up): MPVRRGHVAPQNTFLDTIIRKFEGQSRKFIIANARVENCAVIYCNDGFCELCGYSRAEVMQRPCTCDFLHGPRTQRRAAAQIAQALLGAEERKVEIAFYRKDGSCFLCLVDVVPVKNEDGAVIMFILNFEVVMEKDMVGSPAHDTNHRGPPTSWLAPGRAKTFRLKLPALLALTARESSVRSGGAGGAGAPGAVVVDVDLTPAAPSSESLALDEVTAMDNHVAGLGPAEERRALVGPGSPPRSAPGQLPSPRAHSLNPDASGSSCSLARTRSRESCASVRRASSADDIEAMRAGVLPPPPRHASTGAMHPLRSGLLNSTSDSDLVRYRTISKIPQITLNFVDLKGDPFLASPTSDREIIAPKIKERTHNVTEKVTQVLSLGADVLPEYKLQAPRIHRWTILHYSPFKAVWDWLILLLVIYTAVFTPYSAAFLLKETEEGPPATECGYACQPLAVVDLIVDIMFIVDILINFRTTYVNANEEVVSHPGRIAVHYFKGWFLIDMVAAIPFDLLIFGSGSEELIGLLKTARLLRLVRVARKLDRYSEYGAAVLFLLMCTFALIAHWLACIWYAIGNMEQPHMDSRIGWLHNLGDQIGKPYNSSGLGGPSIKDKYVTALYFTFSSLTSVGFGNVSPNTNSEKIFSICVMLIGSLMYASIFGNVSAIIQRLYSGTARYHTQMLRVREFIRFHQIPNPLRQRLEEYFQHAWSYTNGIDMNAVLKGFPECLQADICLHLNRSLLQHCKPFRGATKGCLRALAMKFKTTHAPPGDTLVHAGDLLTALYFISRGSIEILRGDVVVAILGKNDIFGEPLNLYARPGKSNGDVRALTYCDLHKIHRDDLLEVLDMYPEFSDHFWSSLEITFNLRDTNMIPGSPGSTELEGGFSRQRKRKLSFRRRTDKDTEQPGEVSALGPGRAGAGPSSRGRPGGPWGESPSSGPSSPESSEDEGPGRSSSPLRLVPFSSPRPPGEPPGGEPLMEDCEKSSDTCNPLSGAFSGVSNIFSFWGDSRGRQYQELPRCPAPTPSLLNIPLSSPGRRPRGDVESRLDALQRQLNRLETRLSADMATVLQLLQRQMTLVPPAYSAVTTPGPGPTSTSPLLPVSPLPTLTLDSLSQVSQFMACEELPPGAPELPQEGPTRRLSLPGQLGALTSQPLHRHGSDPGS

| SMILES | hERG current change (%, negative = inhibition) at 10uM [%] |
| --- | --- |
| O=C(O)CSc1nc2sc3c(c2c(=O)n1-c1ccccc1)CCC3 | 22.3 |
| CC(c1n[nH]c(=S)n1-c1ccc(Cl)cc1)N(C)C (stereo not shown) | 15.4 |
| c1ccc(-n2c3ccccc3c3ccccc32)cc1 | 22.5 |
| CN(Cc1ccccc1)C(=O)Cn1c(=O)oc2cc(S(=O)(=O)N3CCCC3)ccc21 | -8.36 |
| Cc1onc(-c2c(F)cccc2Cl)c1C(=O)N1CCOC12CCCCC2 | -19.4 |
| COc1cc2c(cc1OC)-c1cc(Nc3ccccc3Br)nc(=O)n1CC2 | 5.2 |
| Cc1ccc(S(=O)(=O)N2CCCC2C(=O)OCC(=O)Nc2ccc3c(c2)OCO3)cc1 (stereo not shown) | -1.81 |
| O=C(C1CCCN1C(=O)c1cccs1)N1CCN(S(=O)(=O)c2ccc(F)cc2)CC1 (stereo not shown) | 1.18 |
| CCC(C)c1ccccc1NC(=O)C(C)OC(=O)c1ccco1 (stereo not shown) | -15.9 |
| Cc1[nH]c2ccccc2c1/C=C(\C#N)C(=O)NCc1ccccc1 | 10.9 |
| FC(F)(F)c1cccc(Sc2cc(C(F)(F)F)nc(-c3ccccn3)n2)c1 | -15.4 |
| CNc1cc(=O)n(C)c(=O)n1-c1ccccc1 | 6.72 |
| CCOC(=O)c1cc(-c2ccc(F)cc2)n(CCC(=O)NC2CCN(Cc3ccccc3)CC2)c1C | -64.2 |
| CCc1ccc2c(c1)C(NC(C)=O)C(=O)N2CC (stereo not shown) | 11.3 |
| COCCn1ccc2c(OCC(=O)NCCc3ccc(OC)c(OC)c3)cccc2c1=O | -23 |
| CCCN(CC(=O)Nc1ccccc1OC)C(=O)c1cccc(S(=O)(=O)NCc2ccccc2)c1 | -30.9 |
| CN1CCC(N(C)C(=O)c2cc(-c3ccccc3Cl)nc3ccccc23)CC1.Cl | -84.3 |
| Nc1nc2nccc(-c3cccnc3)n2n1 | 29.6 |
| COc1cc(OC)cc(C(=O)NC(C(=O)NCc2ccccn2)C(C)C)c1 (stereo not shown) | 9.36 |
| CCCCNC(=O)N1CCOCCOCCN(C(=O)NCCCC)CCOCCOCC1 | -7.73 |
| CC(=O)c1cc(-c2ccc(F)cc2)n(CCC(=O)Nc2cccc(C)n2)c1C | 19.2 |
| COc1cc(C(=O)ONC(=O)c2ccc(OC(F)F)cc2)cc(OC)c1OC | 22.9 |

| SMILES | hERG current change (%, negative = inhibition) at 10uM [%] |
| --- | --- |
| CC1CN(C(=O)COC(=O)c2ccc(C#N)cc2)CC(C)O1 (stereo not shown) | 5.25 |
| CC(C)(C)CC(C)(C)NC(=O)/C=C/C(=O)O | -0.363 |
| O=C(O)C1C2CCC(O2)C1C(=O)NC1CCCCC1 (stereo not shown) | 2.69 |
| Cc1ccc(N2C(=O)C3NN=C(C(=O)OCc4ccccc4)C3C2=O)c(C)c1 (stereo not shown) | -2.8 |
| COc1ccc(OCC(=O)OCC(=O)NCc2ccc(F)cc2)cc1 | 9.98 |
| O=C(Cc1ccc(Cl)cc1)NNC(=O)Nc1cccc2ccccc12 | 16.1 |
| Cc1cc(NCCCn2ccnc2)n2c(nc3ccccc32)c1C#N | 1.93 |
| N=c1oc2cc(O)ccc2cc1C(=O)Nc1ccc(Br)cc1 | 1.92 |
| COc1ccc(OC)c(NC(=O)CCN2C(=O)c3cccc([N+](=O)[O-])c3C2=O)c1 | 10.5 |
| OCCN(CCCn1c(-c2ccncc2)nc2ccccc21)c1nc(CN2CCCCC2)cs1 | 23.4 |
| O=C(Cc1ccc([N+](=O)[O-])cc1)N1CCN(c2ccc([N+](=O)[O-])cc2)CC1 | -73.7 |
| CCCc1cc(C(=O)N2CCN(c3ccc(C(F)(F)F)cn3)CC2)sc1C | -32.9 |
| N#CCCN1CCN(S(=O)(=O)c2ccc(S(=O)(=O)NC3CC3)cc2)CC1 | -1.76 |
| Cc1ccc(NC(=O)CN2CCCC2)cc1Br.Cl | -11.9 |
| Cc1c(NC(=O)c2ccc(F)cc2)c(=O)n(-c2ccccc2)n1C | 11.2 |
| Cc1cc(OCCOCCN(C)CCO)cc(C)c1Cl | -40.9 |
| Cc1cccc(NC(=O)c2ccc(C3SCC(=O)N3CCc3ccccc3)cc2)c1C (stereo not shown) | 5.54 |
| Cc1ccc(C(=O)Nc2sc(C(=O)N(C)C)c(C)c2C#N)cc1 | 7.56 |
| Cc1ccc(N2CCN(C(=S)Nc3ccccc3C)CC2)cc1 | 16.4 |
| C#CCN(C(=O)CC1C(=O)NCCN1C/C=C/c1ccccc1)C1CCCCC1 (stereo not shown) | 13.4 |
| COc1ccc(Nc2nc(-c3c[nH]c4ccccc34)cs2)cc1 | 16.5 |
